Assay results from patent publication US20120219565A1 (Merck Sharp & Dohme, published 2012).

Columns and labels:
[1] = target: Recombinant human TSLP (expressed in HEK293 cells) (human) (UniProt Q969D9); assay: cell-based or functional assay
[2] = target: Recombinant human TSLP (expressed in HEK293 cells) (human) (UniProt Q969D9); assay: KinExA 3000, solution equilibrium, 25 °C, particles coated with biotinylated human TSLP
[3] = target: Recombinant human TSLP (expressed in HEK293 cells) (human) (UniProt Q969D9); assay: SPR, BIAcore T100, TSLP immobilised on CM5, antibody injected, bivalent analyte model, room temperature

EC 50, inhibition of TSLP-induced proliferation of Ba/F3-TSLPR-IL7Ra cells [1] | Kd [2] | Kd [3] | Binder
0.092 µg/mL | 0.0077 nM | 0.15 nM | Humanized anti hu TSLP mAb 23B12 (comprising the heavy chain of SEQ ID NO:14 and the light chain of SEQ ID NO:16 of WO2008/076321) (antibody, part only; not given: light chain from another filing, part only) heavy: QVQLVQSGAEVKKPGASVKVSCKASGYIFTDYAMHWVRQAPGQGLEWMGTFIPLLDTSDYNQNFKGRVTMTTDTSTSTAYMELRSLRSDDTAVYYCARMGVTHSYVMDAWGQGTLVTVSS[human IgG1 constant region left out here]
0.054 µg/mL | 0.0016 nM | 0.128 nM | Humanized anti hu TSLP mAb 23B12 (comprising the heavy chain of SEQ ID NO:14 with a mutation at position 72 from T to A, and the light chain of SEQ ID NO:16 of … (antibody, part only; not given: light chain from another filing, part only) heavy: QVQLVQSGAEVKKPGASVKVSCKASGYIFTDYAMHWVRQAPGQGLEWMGTFIPLLDTSDYNQNFKGRVTMTADTSTSTAYMELRSLRSDDTAVYYCARMGVTHSYVMDAWGQGTLVTVSS[human IgG1 constant region left out here]
